Test results taken from PubChem BioAssay AID623901 (Broad Institute, 2012).
The whole screen tested about 340,000 compounds, of which about 470 (0.14%) were called active. Inconclusive results, whose numbers are uncertain, are shown with a selection of clear calls.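 Rule for the calls: active = mean activation of 30% or more, with every replicate also reaching 30%; inconclusive = mean activation of 30% or more but some replicate falls short; inactive = the rest.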

assay: small molecules raising miR-122 sensor signal – cell-based, Huh7 psiCHECK-miR122, Renilla luciferase, single point, primary screen (AID 623901); settings: 48 h, at 12.5 µM, active compounds read high;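 note: 0% = median of neutral control wells and 100% = median of positive control wells; higher luciferase signal means stronger suppression of miR-122 activity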

Structure (SMILES) | activation
COCC#Cc1ccc2c(c1)O[C@@H](CN(C)C(C)=O)[C@H](C)CN([C@H](C)CO)S2(=O)=O | inactive: 5.04%
COCC#Cc1cnc2c(c1)C(=O)N([C@H](C)CO)C[C@H](C)[C@H](CN(C)Cc1ccccc1)O2 | inactive: -1.38%
C/C=C/c1ccc([C@@H]2[C@@H](CO)N[C@@H]2CN(CC(C)C)C(=O)c2ccccn2)cc1 | inconclusive: 50%
O=C(NC(Nc1nc2ccc([N+](=O)[O-])cc2s1)(C(F)(F)F)C(F)(F)F)c1ccccc1 | active: 45.7%
COc1ccc(S(=O)(=O)N(C)C[C@@H]2Oc3cc(-c4ccccc4OC)ccc3S(=O)(=O)N([C@@H](C)CO)C[C@H]2C)cc1 | inactive: 0.321%
CC(C)C#Cc1cnc2c(c1)C(=O)N([C@@H](C)CO)C[C@H](C)[C@H](CN(C)C(=O)c1ccccc1)O2 | inactive: 0.245%
COCC(=O)N(C)C[C@H]1Oc2ncc(C#Cc3ccccc3OC)cc2C(=O)N([C@@H](C)CO)C[C@H]1C | inactive: 8.49%
CC(=O)N(C)C[C@H]1[C@@H](c2ccc(-c3ccc(F)cc3)cc2)[C@@H](CO)N1C(C)=O | inconclusive: 33.3%
CC(=O)N(C[C@H]1N[C@H](CO)[C@@H]1c1ccc(-c2ccccc2)cc1)C(C)C | inconclusive: 75%
CCCn1c(NC(=O)c2cccc(C)c2C)nc2ccccc21 | inactive: -118%
CC1(C)CC(=O)c2cnc(NC(=O)c3ccco3)nc2C1 | active: 37.6%
COc1cc(OC)c(OC)cc1/C=C1\CC(C)C/C(=C\c2cc(OC)c(OC)cc2OC)C1=O (stereo not drawn) | inconclusive: 31.7%
C[C@@H](O)C#Cc1ccc2c(c1)O[C@@H](CN(C)C(=O)c1ccncc1)[C@@H](C)CN([C@@H](C)CO)S2(=O)=O | inactive: 2.16%
COc1ccc(CN2C(=O)CS(=O)CC2=O)cc1OC | inconclusive: 50.7%
C/C=C/c1ccc([C@H]2[C@@H](CO)N(C(C)=O)[C@@H]2CN(C(=O)COC)C(C)C)cc1 | inconclusive: 33.3%
C[C@@H]1CN([C@@H](C)CO)S(=O)(=O)c2ccc(-c3ccc(F)cc3)cc2O[C@H]1CN(C)C(=O)C1CCOCC1 | inactive: -1.13%
C/C=C/c1ccc([C@H]2[C@@H](CO)N(C(=O)C3CC3)[C@H]2CN(C)C(=O)CC2CC2)cc1 | inconclusive: 66.7%
C[C@@H]1CN([C@H](C)CO)S(=O)(=O)c2ccc(C3=CCCCC3)cc2O[C@H]1CN(C)S(C)(=O)=O | inactive: 5.83%
CCC(=O)NC[C@@H]1[C@@H](c2ccc(C3=CCCC3)cc2)[C@@H](CO)N1C(C)=O | inconclusive: 30.5%
CO[C@H]1CN(C)C(=O)c2ccc(NC(=O)Nc3ccc(F)cc3)cc2OC[C@H](C)NC[C@H]1C | inactive: -2.02%
CCCC(=O)Nc1ccc2c(c1)C(=O)N(C)[C@@H]1CC[C@H](CC(=O)N3CCc4ccccc4C3)O[C@H]1CO2 | inconclusive: 33.3%
COc1ccc(C(C(=O)NC2CCCCC2)N(C(=O)CCl)c2cccc(Cl)c2)cc1 (stereo not drawn) | active: 55.4%
CN1C(=O)c2cc(NC(=O)c3cccc(F)c3)ccc2OC[C@H]2O[C@H](CC(=O)NC3CCC3)CC[C@@H]21 | inconclusive: 50%

Structure (SMILES) | activation
C[C@@H]1CN([C@@H](C)CO)S(=O)(=O)c2ccc(C#CCC3CCCC3)cc2O[C@H]1CN(C)C(=O)CN(C)C | inactive: 3.82%
C[C@@H]1CN([C@@H](C)CO)C(=O)c2cc(C#CC3(O)CCCC3)cnc2O[C@@H]1CN(C)S(C)(=O)=O | inactive: 6.59%
O=C(CN1CCOCC1)NC[C@@H]1N[C@@H](CO)[C@@H]1c1ccc(-c2ccccc2)cc1 | inconclusive: 33.3%
C[C@H]1CN([C@@H](C)CO)C(=O)c2cc(C#Cc3ccccn3)cnc2O[C@@H]1CN(C)C(=O)CCN1CCCCC1 | inactive: -2.85%
CC(C)N(C[C@@H]1N[C@@H](CO)[C@@H]1c1ccccc1)S(=O)(=O)c1ccccc1 | active: 66.7%
CN1C(=O)c2cc(NC(=O)c3ccc(C(F)(F)F)cc3)ccc2OC[C@H]2O[C@H](CC(=O)NCc3ccc4c(c3)OCO4)CC[C@@H]21 | inconclusive: 83.3%
C[C@@H]1CCCCO[C@H](CN(C)CC2CCCCC2)[C@H](C)CN([C@H](C)CO)C(=O)c2cc(NC(=O)Nc3ccc4c(c3)OCO4)ccc2O1 | inconclusive: 30.6%
CCCC(=O)Nc1ccc2c(c1)C(=O)N(C)[C@H]1CC[C@H](CC(=O)NCCN3CCCCC3)O[C@@H]1CO2 | inconclusive: 41.7%
CCN1CCN(C(c2cccnc2)c2cc(Cl)c3cccnc3c2O)CC1 (stereo not drawn) | active: 49.7%
CCC(=O)N(C)C[C@H]1Oc2cc(C#Cc3ccccc3)ccc2S(=O)(=O)N([C@H](C)CO)C[C@H]1C | active: 55.7%
Cc1cccc(-c2ccc([C@@H]3[C@H](CO)N4CCCCN(CCC(F)(F)F)C[C@@H]34)cc2)c1 | inconclusive: 31.4%
CCn1cc(/C=C/c2cc[n+](C)cc2)c2ccccc21 | inconclusive: 31.3%
C[C@H](CO)N1C[C@H](C)[C@@H](CN(C)C(=O)CC2CC2)Oc2ncc(C#CCC3CCCC3)cc2C1=O | inactive: 0.575%
CC(=O)c1ccc(Nc2nc3ccc(C)cc3n3cnnc23)cc1 | inconclusive: 31.3%
CCCC(O)C#Cc1cnc2c(c1)C(=O)N([C@H](C)CO)C[C@H](C)[C@H](CN(C)C(=O)Nc1ccc(F)cc1)O2 (stereo partly drawn) | inactive: 3.27%
NC(=O)c1csc(-c2ccncc2)n1 | inconclusive: 31.4%
CCCNC(=O)C[C@H]1CC[C@@H]2[C@H](COc3ccc(NS(=O)(=O)c4ccccc4C)cc3C(=O)N2C)O1 | inconclusive: 41.7%
CC1CCCCN1C(=O)c1ccc(COc2ccc([N+](=O)[O-])cc2)o1 (stereo not drawn) | inconclusive: 32.4%
COc1ccc(NS(=O)(=O)c2cc(OC)ccc2OC)cc1 | inactive: -130%
O=C(C1CCCCC1)N1[C@H](CO)[C@@H]2c3ccccc3N(S(=O)(=O)c3ccccc3)C[C@@H]21 | inactive: -95.6%
C/C=C/c1ccc([C@@H]2[C@@H](CO)N(S(C)(=O)=O)[C@H]2CN(C)C(=O)CC)cc1 | inconclusive: 30.1%
CCN(C[C@@H]1[C@@H](c2ccc(C3=CCCCC3)cc2)[C@@H](CO)N1CC1CC1)C(C)=O | inconclusive: 58.3%
C[C@@H]1CN([C@@H](C)CO)C(=O)c2cc(NC(=O)Nc3cccc4ccccc34)ccc2O[C@@H](C)CCCCO[C@H]1CN(C)CC1CCCCC1 | inconclusive: 30%

Structure (SMILES) | activation
O=C(Cc1cccnc1)N1[C@@H](CO)[C@@H]2c3ccccc3NC[C@@H]21 | inconclusive: 31.5%
C[C@@H]1CN([C@H](C)CO)C(=O)c2cccc(NC(=O)c3ccc(-c4nccs4)cc3)c2O[C@H]1CN(C)S(=O)(=O)c1ccc(F)cc1 | inconclusive: 32.1%
COc1ccc(CCNC(=O)C2CCN(Cc3nc(-c4cccc(Cl)c4)oc3C)CC2)cc1OC | inconclusive: 32.6%
COc1ccc(OCc2cc(C(=O)NCCc3ccccc3)no2)c(Cl)c1 | inactive: -111%
COC(=O)[C@@H]1Cc2c([nH]c3ccccc23)C(C)(C)N1C(=O)CCl | active: 32.2%
COc1ccc(NC(=O)/C(Cl)=C(/Cl)S(=O)Cc2ccc(Cl)cc2)cn1 (stereo not drawn) | inconclusive: 30.3%
CN1CC(c2ccc(C#N)cc2)C2(COc3ccccc3C2=O)C12C(=O)Nc1ccccc12 (stereo not drawn) | inactive: -90.4%
C[C@@H]1CN([C@H](C)CO)C(=O)c2cc(-c3cncnc3)cnc2O[C@H]1CN(C)Cc1ccncc1 | inactive: 1.88%
CCCN(C)C[C@@H]1Oc2ncc(-c3cccc(C(F)(F)F)c3)cc2C(=O)N([C@H](C)CO)C[C@@H]1C | inactive: 10.1%
CN1C(=O)c2cc(NC(=O)c3cccs3)ccc2OC[C@@H]2O[C@H](CC(=O)NCC(F)(F)F)CC[C@H]21 | inconclusive: 33.3%
CC(=O)N(C)C[C@@H]1Oc2cc(C#CC3(O)CCCC3)ccc2S(=O)(=O)N([C@@H](C)CO)C[C@@H]1C | inactive: 9.97%
CC(=O)N1[C@H](CNC(=O)C2CC2)[C@H](c2ccc(-c3cccc(F)c3)cc2)[C@@H]1CO | inconclusive: 35.7%
CN(C[C@H]1[C@H](c2ccccc2)[C@@H](CO)N1CC1CC1)C(=O)c1cccc(F)c1 | inconclusive: 58.3%
COc1ccc(NC(=O)N(C)C[C@H]2Oc3cc(C#CCC(C)C)ccc3S(=O)(=O)N([C@@H](C)CO)C[C@H]2C)cc1 | inconclusive: 40.4%
CC(C)C(=O)Nc1ccc2c(c1)C(=O)N(C)[C@H]1CC[C@H](CC(=O)Nc3cccc(F)c3)O[C@@H]1CO2 | inconclusive: 35%
CN1C(=O)c2cc(NC(=O)c3cccs3)ccc2OC[C@H]2O[C@H](CC(=O)NCC(F)(F)F)CC[C@H]21 | active: 50%
CC(=O)N(C)C[C@H]1Oc2cc(C#C[C@@H](C)O)ccc2S(=O)(=O)N([C@@H](C)CO)C[C@@H]1C | inactive: -4.79%
CC(=O)C1=C(c2ccc(Br)cc2)C(=O)c2ccccc2C1=O | active: 76.2%
COc1ccc(NS(=O)(=O)c2ccc3ccccc3c2)c2ncccc12 | inactive: -104%
CCCNC(=O)C[C@@H]1CC[C@@H]2[C@@H](COc3ccc(NC(=O)c4ccc(C(F)(F)F)cc4)cc3C(=O)N2C)O1 | inconclusive: 32.5%
C[C@H](CO)N1C[C@H](C)[C@H](CN(C)C(=O)NC2CCCCC2)Oc2cc(/C=C/c3ccccc3)ccc2S1(=O)=O | inconclusive: 38.2%
C[C@H]1CN([C@@H](C)CO)C(=O)c2cc(C#Cc3ccccc3F)cnc2O[C@H]1CN(C)C(=O)C1CCOCC1 | inactive: 1.84%
